Measurements from the RNAGym collection of RNA variant scans (doi:10.7554/elife.90254).
The source gives no read counts; variants with many changes may rest on few reads.

B1: LINE1-mini (parent)
chain: GGCAGAGCUCAACACAGCGUGGCAAAGUGGCUGUGGCUAGACUGCC

Variants of: B1
Assay: self-cleavage, relative activity (ratio to wild type); higher = more cleavage; in vitro, sequencing; the parent is a self-cleaving ribozyme

Variant | self-cleavage
A26G A39U C42A | 0.02
A25U U34G C42G | 0.01
U28A G29A G40U | 0.18
U28A G33U C37G G40C | 0.03
A26U G40A C46U | 0.03
G27C G29U C37A | 0.11
A26U U28A C37G C42U | 0.01
G27A U34A G36C C46U | 0.04
G27U G35C U38G | 0.06
A25U A26C G30C C42A | 0.05
A26U G36U U43C | 0.05
A26G G29C C31U U34C | 0.06
A26U G27U G40U | 0.13
G27A U34A C45U | 0.04
A26G G36C A39G | 0.1
A25U G30U G35C | 0.04
G27U A41C C45G | 0.05
A26C G36U A39G C42A | 0
A26U G27A G44U | 0.48
G27C C37A A39G | 0.04
U28A G30U G35U U38A C46A | 0.05
A26G G27A U32C C46A | 0.04
A26C G27U U43A | 0.07
A26U G35A G36U C42U | 0.01

Variant | self-cleavage
A26C G30A C37G G44U C45A | 0.17
A26G G35U A41C | 0.03
U28A G35C A39G | 0.02
A26C G36C C37U | 0.02
A26C G44U C45U | 0
G27C U32A C42A | 0.09
A26C G33A G40C | 0.15
A26C G35U G36C G44C | 0.42
A26C G35C C37G C42G C46A | 0.02
A26C A39U G40C U43G | 0.1
A25U U28G C42A | 0.01
A25U U38A A39U | 0.27
A26U U32C C42G | 0.09
G27A U38G G40U | 0.17
A26C U32G G35A | 0.06
A26G G27C U38A | 0.27
G27A G33A U34C | 0.05
A26U G27A U38C A41C | 0.04
A26C G33U G35A | 0.02
A26U G30U G36A | 0.06
G27U G30U U43C | 0.04
G27A C31G G40C | 0.05
A26G G27C C31G G33A A39C A41G | 0.02
A25U G35A G40A | 0.05

Variant | self-cleavage
U28A G29U C31G G36A A39C C45G | 0.12
A26U U43G G44A | 0.22
A25U G29U U34G | 0.25
A26C U28C C31A U32A A41C C42A | 0.01
U28A C31G U32G G36U | 0.04
A26C G27A C37G A39U | 0
A26C G33A G44U | 0.1
A26C G27A G33C G44U | 0.05
U28A G33A U34G | 0.11
A26U C37A G40U | 0.23
G27C G29A C42U | 0
A26U G36C U43A | 0.02
A26G G29U G36A | 0.22
G27C U32C G35U G36U | 0.11
A26G G27C G29A | 0.3
G27U U38A G40C | 0
A26C G29A U38A | 0.17
G27A G29U U32C | 0.12
G27A C31G G33A | 0.1
G27U G40C U43C G44U | 0.08
A25U A39G C46A | 0.06
A26C G30U C37A | 0.05
A26C G30C G35U | 0.11
A26C G35U C37A | 0.04

Variant | self-cleavage
G27A U38G A41C | 0
A25U G27U G44A | 0.19
G27U G29U G35C C37U | 0.01
G27U G40C C45U | 0.02
G27C G40U C42A | 0.04
G27A C31G G44C | 0.07
G27A C31A A39C | 0.01
A25U G30A G35C G44U | 0.01
G27U U38A C46G | 0.24
G27U U38A C46U | 0.32
A26G U32A U34C | 0.02
G27A G36C C42G C45G | 0.07
G27A U34C C46A | 0.05
G27C U34G C42U | 0.03
A25U U28C C31U A41C | 0.04
A26C G30C U32C | 0.13
A26G U28C G44C | 0.51
A25U U43G C45A | 0.06
A25U G35U U38C U43G C46U | 0.04
A25U C31G C37U U38A A41G | 0.05
A26G C37U C46A | 0.07
G27C G30C C46A | 0.26
G27U C42G U43C | 0.01
G27C C31A G33U | 0.03

Variant | self-cleavage
A26G G35C G36C | 0.02
G27U U38A G44U | 0.11
A25U G30A U38A | 0.71
A26U C37G A39G | 0.02
U28A G30A U34G C45A | 0.03
A26U G40A U43C | 0.06
A26G G35U A39U U43A | 0.02
G27U G30U C31A C42A U43G | 0.22
A25U C31A U43G | 0
A26G C31G C46A | 0.03
A25U C37A U43A G44A | 0.07
A26U G36C C37U G40A | 0.21
A26C G27U G30C | 0.41
A26U U43A C45U | 0.09
G27C G30C G40U | 0.05
A26C G27U C37U C45G | 0.02
G27C U28C A41U | 0.52
G27U U28G U32G C42A | 0.01
A25U G29U U32G C37A | 0.05
G27A G40C C45A | 0.05
G27A G44A C45A | 0.31
A26G G30A C31A G40U A41G | 0.07
U28A A39U C42A | 0.11
A26C G29C G30C C37G A39G | 0.05

Variant | self-cleavage
A26C U32C G36C C46A | 0.06
A26U U34C U38G G40A | 0.06
G27A A39G G44A | 0.48
A26C G33A A41C | 0.12
A26C U28G U32A | 0.07
G27U G30A G33A A41G | 0.07
A25U U32G G35C | 0.26
A25U C31U U34A | 0.02
A26U G35U C37A | 0.09
A26U G27U U38G A41U | 0.01
U28A G30C G35A | 0.09
A25U G40C U43A | 0.01
A26C C31G G33C | 0.08
A26U U38G A39G | 0.02
G27C C31U C37U C46G | 0.01
G27U G30A G36A | 0.1
G27C U28A G30U | 1.27
A26C C31A C37G A39C | 0
A26G A39C A41G C42G | 0.04
U28A G35C G36U | 0
A26U G27C U28A G33C C45G | 0.04
A25U A26C G40A | 0.05
G27U U32G C37A | 0.08
G27C G40C C42U | 0.03

Variant | self-cleavage
G27C C31G G36A | 0.08
A25U C37G C42A | 0.04
U28A G35A U38G | 0
G27A G29A G33C | 0.09
G27A G29A G33A | 0.05
G27C C37A G40U C45U | 0.03
G27C G36A C42A | 0.02
G27U C31U C46G | 1.36
A26G G27C G44C | 0.18
A26C U28G A41C | 0.01
G27C G30U A39C | 0.07
A26U U28G U32C | 0.15
A25U G30C A41G G44C | 0
G27U C31A A41G | 0.06
A25U A39G G44C | 0.05
G27U G33A U43A | 0.06
A26G G27U G29C G30U A41U C42G | 0.17
A26U C37U U43A | 0.02
A25U C31G U38G U43G | 0.06
G27A U28A G35C A41G | 0.06
A26U G33U U34A | 0.11
G27A G35U C37A | 0.13
A25U A41G C46G | 0.16
